This note sets out measurements from the antibiotic and cytotoxicity screens of Wong et al. (2023).

The list shows a part of the results.

This assay relates to HSkMC (human skeletal muscle cells). The experiment in a line: cytotoxicity call (relative viability < 0.9). The note with it: 10 µM.
As to `C[C@@H]1CN([C@@H](C)CO)C(=O)c2cc(NC(=O)C3CCCCC3)ccc2O[C@@H]1CN(C)Cc1ccc(Cl)c(Cl)c1`, the cytotoxicity call was “inactive”.
In the case of `C[C@@H]1CN([C@H](C)CO)C(=O)c2cccc(NS(=O)(=O)c3cn(C)cn3)c2O[C@H]1CN(C)C(=O)Nc1ccccc1`, the cytotoxicity call was “inactive”.
As to `COc1ccc(CN(C)C[C@H]2OCCCC[C@H](C)Oc3ccc(NC(=O)NC(C)C)cc3C(=O)N([C@H](C)CO)C[C@@H]2C)cc1`, the cytotoxicity call is “inactive”.
As for `COc1ccc(S(=O)(=O)N(C)C[C@H]2Oc3ccc(NC(=O)Nc4c(C)noc4C)cc3C(=O)N([C@@H](C)CO)C[C@@H]2C)cc1`, the cytotoxicity call is “inactive”.
Consider `C[C@@H]1CN([C@H](C)CO)C(=O)c2cc(NC(=O)Nc3cccc4ccccc34)ccc2O[C@H]1CN(C)Cc1ccc(C(F)(F)F)cc1`, for which the cytotoxicity call was “inactive”.
Turning to `CC(C)NC(=O)N(C)C[C@@H]1Oc2c(NS(=O)(=O)c3ccc(Cl)cc3)cccc2C(=O)N([C@@H](C)CO)C[C@H]1C`, the cytotoxicity call is “inactive”.
Turning to `C[C@H]1CN([C@@H](C)CO)C(=O)Cc2cc(NC(=O)CCCN(C)C)ccc2O[C@@H]1CN(C)S(=O)(=O)c1cn(C)cn1`, the cytotoxicity call was “inactive”.
For the compound `O=C(C[C@H]1CC[C@@H]2[C@H](COC[C@H](O)CN2C(=O)Nc2cccc(F)c2)O1)NCc1ccccc1Cl`, the cytotoxicity call was “inactive”.
For the compound `CCOC(=O)C1=CC(OC(CC)CC)C(NC(C)=O)C(N)C1.O=P(O)(O)O` (stereo not given), the cytotoxicity call was “inactive”.
With `C[C@H]1CCCCO[C@H](CN(C)C(=O)C2CCCCC2)[C@@H](C)CN([C@@H](C)CO)C(=O)c2cc(NC(=O)Cc3ccccc3)ccc2O1`, the cytotoxicity call was “inactive”.
Regarding `Cc1ccc(S(=O)(=O)N(C)C[C@@H]2Oc3ccc(NS(=O)(=O)c4ccc(F)cc4)cc3CC(=O)N([C@H](C)CO)C[C@H]2C)cc1`, the cytotoxicity call was “inactive”.
Take `NC(=O)c1ncn(C2OC(CO)C(O)C2O)c1N` (stereo not given): the cytotoxicity call was “inactive”.
As for `COCC#Cc1ccc([C@H]2[C@@H](CO)N3C(=O)CN(C(=O)CN4CCOCC4)C[C@H]23)cc1`, the cytotoxicity call is “inactive”.
As to `c1cn2c3c(n1)CCCc3c1cc(C3CCCCC3)ccc12`, the cytotoxicity call is “inactive”.
For the compound `Cc1nc[nH]c1CN(C)[C@H](C)C(=O)N(C)C`, the cytotoxicity call was “inactive”.
As for `Nc1ncnc(NCCN2CCOCC2)c1[N+](=O)[O-]`, the entry is “inactive”; as for `C[C@H](CO)N1C[C@H](C)[C@H](CN(C)S(=O)(=O)c2cn(C)cn2)Oc2c(NS(=O)(=O)c3ccc(Cl)cc3)cccc2C1=O`, “inactive”; as for `CC(C)NC(=O)N(C)C[C@H]1Oc2ccc(NC(=O)NC3CCCCC3)cc2C(=O)N([C@H](C)CO)C[C@@H]1C`, “inactive”.
For the compound `CCN(CC)c1ccnc([C@H]2COCCN2)n1`, the cytotoxicity call is “inactive”.
Turning to `CCCCCCCCNC(C)C(O)c1ccc(SC(C)C)cc1` (stereo not given), the cytotoxicity call was “active”.
Consider `C[C@H](CO)N1C[C@H](C)[C@@H](CN(C)S(=O)(=O)c2ccccc2)Oc2ccc(NS(=O)(=O)c3cn(C)cn3)cc2CC1=O`, for which the cytotoxicity call was “inactive”.
On to `Cc1ccc(S(=O)(=O)Nc2ccc3c(c2)C(=O)N([C@H](C)CO)C[C@H](C)[C@H](CN(C)Cc2ccccc2)OCCCC[C@@H](C)O3)cc1`, for which the cytotoxicity call was “inactive”.
For `Cc1noc(C)c1NC(=O)Nc1cccc2c1O[C@H](CN(C)C(=O)Nc1cccc3ccccc13)[C@@H](C)CN([C@H](C)CO)C2=O`, the cytotoxicity call was “inactive”.
Under `CC(C)c1c(C(=O)c2ccccc2)c(-c2ccccc2)c(-c2ccc(F)cc2)n1CC[C@@H](O)C[C@@H](O)CC(=O)O` stands “inactive”; under `C[C@H]1CN([C@@H](C)CO)C(=O)c2cc(NS(C)(=O)=O)ccc2O[C@H]1CN(C)S(=O)(=O)c1ccc(F)cc1`, “inactive”.
For the compound `C[C@H]1CN([C@@H](C)CO)C(=O)Cc2cc(NS(=O)(=O)c3cn(C)cn3)ccc2O[C@H]1CN(C)S(=O)(=O)c1ccc(F)cc1`, the cytotoxicity call was “inactive”.
Under `CC(C)C#Cc1cnc2c(c1)C(=O)N([C@H](C)CO)C[C@H](C)[C@@H](CN(C)S(=O)(=O)c1cn(C)cn1)O2` stands “inactive”; under `CN1CCC(CO)CC1`, “inactive”; under `O=C(C[C@@H]1C=C[C@H](NS(=O)(=O)c2ccc(F)cc2)[C@H](CO)O1)NCc1ccc(Cl)c(Cl)c1`, “inactive”.
With `CCCNC(=O)N[C@H]1C=C[C@H](CC(=O)N2CCN(C)CC2)O[C@H]1CO`, the cytotoxicity call was “inactive”.
As to `CN1CCN(C(=O)C[C@H]2CC[C@@H](NC(=O)Cc3ccccn3)[C@@H](CO)O2)CC1`, the cytotoxicity call is “inactive”.
As to `C[C@@H]1CN([C@@H](C)CO)C(=O)c2cc(NS(=O)(=O)c3cccs3)ccc2O[C@@H](C)CCCCO[C@@H]1CN(C)C(=O)c1ccccc1`, the cytotoxicity call is “inactive”.
Consider `C[C@@H]1CCCCO[C@H](CN(C)C(=O)NC2CCCCC2)[C@@H](C)CN([C@@H](C)CO)C(=O)c2cc(NC(=O)Nc3ccc(C(F)(F)F)cc3)ccc2O1`, for which the cytotoxicity call was “inactive”.
On to `C[C@H]1CN([C@@H](C)CO)C(=O)Cc2cc(NS(=O)(=O)c3cccs3)ccc2O[C@@H]1CN(C)CC1CC1`, for which the cytotoxicity call is “inactive”.
In the case of `O=C(CN1CCNCC1)NC1CCCCC1`, the cytotoxicity call was “inactive”.
As for `C[C@@H]1COS(=O)(=O)N1`, the cytotoxicity call is “inactive”.
Take `Cc1noc(C)c1S(=O)(=O)Nc1ccc2c(c1)CC(=O)N([C@@H](C)CO)C[C@H](C)[C@H](CN(C)S(C)(=O)=O)O2`: the cytotoxicity call was “inactive”.
Regarding `C[C@H](CO)N1C[C@H](C)[C@H](CN(C)S(=O)(=O)c2cn(C)cn2)Oc2ccc(NS(C)(=O)=O)cc2CC1=O`, the cytotoxicity call is “inactive”.
In the case of `O=C1CCC(C(=O)O)N1` (stereo not given), the cytotoxicity call is “inactive”.
With `C[C@@H]1CCCCO[C@@H](CN(C)S(=O)(=O)c2ccc(Cl)cc2)[C@H](C)CN([C@@H](C)CO)C(=O)c2cc(NC(=O)Nc3ccc(C(F)(F)F)cc3)ccc2O1`, the cytotoxicity call is “inactive”.
